{"source": "the supplement of paper PMC11417369", "note": "This is one part of the list."}
{"system": "PF3D7_0420300 AP2 domain 1 (GST-tagged)", "experiment": "gcPBM binding intensity (ln(normalized median fluorescence intensity)); higher = stronger DNA binding", "method_in_brief": "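The highest Masliner-normalised natural-log median intensity across replicate spots of either probe orientation is reported as binding intensity. GST-tagged P. falciparum DNA-binding domains expressed in E. coli were applied for 1 h to an Agilent 4 × 180k array of primer-extended double-stranded 36-bp intergenic genomic probes plus negative controls, and bound protein was detected with Alexa488 anti-GST antibody and scanned at 488 nm.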"}
{"sequence": "TATTAAGTATTTTACGTACACACTTATAAATGTACA [CACACA_site3885]", "gcPBM binding intensity (ln)": 9.28}
{"sequence": "AATTTATATTTTCGTAGTACGTATTTTATTCTTTTG [XGTACX_site4162]", "gcPBM binding intensity (ln)": 9.43}
{"sequence": "TATAAGGTGTCCTATACACACTCCAATAGATATATA [CACACA_site7066]", "gcPBM binding intensity (ln)": 9.17}
{"sequence": "CTGAACCCGTTATGGTGTACATAAAATAAGACACAG [XGTACX_site3484]", "gcPBM binding intensity (ln)": 9.18}
{"sequence": "ATTACATGCAATATATGTACGTAATATATATATATA [XGTACX_site2300]", "gcPBM binding intensity (ln)": 9.17}
{"sequence": "TTTTTATTCGATGATCAAATAGGTATATACAAAAAA [CACACA_negctrl_site1813]", "gcPBM binding intensity (ln)": 9.01}
{"sequence": "AATAATAATAGTAATATGTACATATATATATATATA [TGCATGCA_negctrl_site542]", "gcPBM binding intensity (ln)": 9.23}
{"sequence": "TATAAGCAAAAACACACACACATATATATATATATA [CACACA_site3804]", "gcPBM binding intensity (ln)": 9.65}
{"sequence": "TTATTTAAAAAAAAGTGTACCCATATATTATAAATC [XGTACX_site8374]", "gcPBM binding intensity (ln)": 9.17}
{"sequence": "TAATATTATAGATAAACACACATACACATGTAAATA [CACACA_site7049]", "gcPBM binding intensity (ln)": 9.68}
{"sequence": "AAATGAAATTTGTATACACACAAATATATATATATA [CACACA_site836]", "gcPBM binding intensity (ln)": 9.38}
{"sequence": "GCATCCCTTTTTATGTGTACATACAAAGGCAATTAC [XGTACX_site6977]", "gcPBM binding intensity (ln)": 9.28}
{"sequence": "AAAATATAAATCTAAGCATGCAAAAAAAATTTATAA [TGCATGCA_site1008]", "gcPBM binding intensity (ln)": 9.13}
{"sequence": "TATTGTTTTAAAGAGACATGCAATATATATTATTCC [TGCATGCA_site752]", "gcPBM binding intensity (ln)": 9.06}
{"sequence": "TAAACGTTAGTATGTGTGCACATTAGTAATTTAAAA", "gcPBM binding intensity (ln)": 9.52}
{"sequence": "TTTTTATTATTCTTAAGGATATAACAAAAAAGAAAA [XGTACX_negctrl_site584]", "gcPBM binding intensity (ln)": 8.81}
{"sequence": "ATTAATATTATTAGAAGTACTAATAGTAGTATAACT [XGTACX_site1325]", "gcPBM binding intensity (ln)": 9.14}
{"sequence": "TTCTAAAAAAATAAAATTATCAAGGTTTTTAAACGT [CACACA_negctrl_site308]", "gcPBM binding intensity (ln)": 8.93}
{"sequence": "TCAAAGCACACATACACACACATATAGATTTATATA [CACACA_site6272]", "gcPBM binding intensity (ln)": 9.89}
{"sequence": "TAAATAAATATATATTCACACACAAACATATATATA [CACACA_site9332]", "gcPBM binding intensity (ln)": 9.68}
{"sequence": "TCTTCATAAAAATAAAGTACATTATATATATAAATA [XGTACX_site3775]", "gcPBM binding intensity (ln)": 8.96}
{"sequence": "TTTATTTATAGACACACACACAAAAAAAAAAAAAAA [CACACA_site7280]", "gcPBM binding intensity (ln)": 9.57}
{"sequence": "TTGTATATATATGGAAAAATATATATATATATATAT [GTGCAC_negctrl_site591]", "gcPBM binding intensity (ln)": 9.04}
{"sequence": "CATTTATATTATAAATGTACAAAGTTCGTTTGTTCC [XGTACX_site1305]", "gcPBM binding intensity (ln)": 9.17}
{"sequence": "TTTTTTTTTTTTTTTATAAAAGATAATTTTTTTTTA [CACACA_negctrl_site133]", "gcPBM binding intensity (ln)": 8.45}
{"sequence": "TGTCTTTAAATTTCTCAACACACAGTTATAAAAAAT [CACACA_site8930]", "gcPBM binding intensity (ln)": 9.18}
{"sequence": "GGGTCAAGTAAGCTGTTCCTCTTTTTCTTTCTCACT [GTGCAC_negctrl_site473]", "gcPBM binding intensity (ln)": 9.7}
{"sequence": "TATAAATTTAAAATGACACACACTAATATTATTTAA [CACACA_site8334]", "gcPBM binding intensity (ln)": 9.6}
{"sequence": "ATACGATTGAAACATTGTACATGAATATAAAAAAAT [XGTACX_site5704]", "gcPBM binding intensity (ln)": 9.31}
{"sequence": "TTATTACATGTTACTTAACACACATCTGGTGAAATA [CACACA_site7939]", "gcPBM binding intensity (ln)": 9.4}
{"sequence": "GGAAAGACAGTTCACAGTACCCAGTAAACTCTACGG [XGTACX_site2557]", "gcPBM binding intensity (ln)": 9.16}
{"sequence": "AAAATATAGTAATATATATATGTATATTATTTGTGG [CACACA_negctrl_site1590]", "gcPBM binding intensity (ln)": 9.17}
{"sequence": "ATATATAATATTTTTATTTTTATTTTTTTTTTATGA [TGCATGCA_negctrl_site577]", "gcPBM binding intensity (ln)": 9.01}
{"sequence": "ATTAAGTTCAAATGTAGTACGTGTAAAAAAAAAAAA [XGTACX_site1578]", "gcPBM binding intensity (ln)": 9.18}
{"sequence": "TACCATGTTCAAATTACACACATATAATGTAATATA [CACACA_site5150]", "gcPBM binding intensity (ln)": 9.39}
{"sequence": "TTTATATATGTAAATGCACACATATGTGTATATACT [CACACA_site8493]", "gcPBM binding intensity (ln)": 9.49}
{"sequence": "AAAATAAATAAATAAATAAATATATATATATATATA [XGTACX_negctrl_site345]", "gcPBM binding intensity (ln)": 9.03}
{"sequence": "TATAGGTATATATTATGTACTTATAATTATATAGAT [XGTACX_site1912]", "gcPBM binding intensity (ln)": 9.07}
{"sequence": "GAAATATTTAGACACACACACAAACATATAAATATA [CACACA_site6980]", "gcPBM binding intensity (ln)": 9.98}
{"sequence": "ATGTTGTGTATATATACACACATACATATATATATA [CACACA_site8461]", "gcPBM binding intensity (ln)": 9.52}
{"sequence": "GATTATATTATATATTAAATATAAATATGTATTATA [TGCATGCA_negctrl_site66]", "gcPBM binding intensity (ln)": 9.05}
{"sequence": "AATGGAAATGTAAAATGTACAGGACGCACACACATA [XGTACX_site7788]", "gcPBM binding intensity (ln)": 9.66}
{"sequence": "AAAAAAAATTAAAATAAATTAAAAAGTAATTATATA [GTGCAC_negctrl_site615]", "gcPBM binding intensity (ln)": 9.01}
{"sequence": "AATGAGAAGGACTGCACACTAAAATGGAAGGAGAAA [CACACA_site1575]", "gcPBM binding intensity (ln)": 9.55}
